# Assay results as given in ChEMBL document CHEMBL1157539, “Thousands of chemical starting points for antimalarial lead identification” (Nature, 2010).
# Whole data set: some 13,000 compounds, median “IFI” near 4, cut for the highest 2% near 17. The list shows a part of the results.
# Assay: GSK_TCMDC: Inhibition Frequency Index (IFI). The number of non-kinase HTS assays where a compound showed > 50 % inhibition, expressed as a percentage of the number of such assays in which the compound was tested (-0 is zero)
# Assay type: functional
row,SMILES,IFI
1,CC(C)(C(=O)Nc1ccc(C2CCC(NCC3CC3)CC2)c(Cl)c1)c1cccc(OC(F)F)c1 (stereo unspecified),23.4%
2,NC1CCN(c2nc(NCCCc3ccc(O)cc3)nc(NCc3ccccc3-c3ccc(C(F)(F)F)cc3)n2)CC1,16.9%
3,Cc1cc(N(C)C)nc(Nc2ccc(NC(=O)Nc3ccccc3)cc2)n1,6%
4,CN(C)CCNC(=O)c1ccc2c(c1)n(C1CCN(S(=O)(=O)c3ccc(-c4ccccc4)cc3)CC1)c(=O)n2CC1CCCCC1,7.69%
5,FC(F)(F)c1ccc2[nH]ccc(=NN=CC=Cc3ccccc3)c2c1,1.45%
6,O=C(/C=C/c1ccc(Cl)cc1)NCCCCCN1CCCN(C(=O)Nc2ccc(F)c(Cl)c2)CC1,10.9%
7,CN(c1ccccc1)c1ccnc(NC(=N)Nc2ccc(Cl)cc2)n1,18.4%
8,N#Cc1ccc(NC2(C(=O)N3CCN(c4cccc(Cl)c4)CC3)CC2)c2ccccc12,-0%
9,COc1ccc(CCC(C)N2CC(N)C(c3cn(C)c4cnccc34)C2)cc1 (stereo unspecified),0%
10,Cc1cc2ncn(-c3ccnc(N4CCN(CCCN5CCCC5)CC4)n3)c2cc1C,5.26%
11,O=C(NCC1CCN(Cc2cccc(F)c2)C1)c1cc(-c2cccc(C(F)(F)F)c2)cs1 (stereo unspecified),9.43%
12,c1ccc2[nH]c(-c3ccc(-c4ccc(CN5CCCCC5)cc4)s3)nc2c1,4.13%
13,COc1ccc(-c2cc(C(=O)Nc3ccc4[nH]c(-c5ccccc5)nc4c3)[nH]n2)cc1,3.39%
14,COc1ccc(-c2nc(NC(=O)CS(=O)(=O)c3ccc(F)cc3)sc2C)cc1,5.31%
15,Cc1ccc(NC(=O)NCCCCCN2CCC(c3c[nH]c4ccccc34)CC2)cc1I,5.34%
16,Cc1ccc(NS(=O)(=O)c2ccc(-c3ccccc3)cc2)c(Cn2cnc(N3CCCNCC3)cc2=O)c1,5.04%
17,c1ccc2c(c1)ncc1c3ccccc3[nH]c21,1.5%
18,O=S(=O)(NCCN1CCCC1)c1ccc(-c2cccc(CNCc3ccc(F)cc3)c2)cc1,10.4%
19,CCc1n[nH]c(C(=O)NC2CCN(CC3(c4ccc(OC)cc4)CCCCC3)CC2)c1C,6%

row,SMILES,IFI
1,Cc1cc(-c2cccc(CNC3CCN(C)CC3)c2)ccc1S(=O)(=O)NCc1ccccc1,10.4%
2,Cc1ccc(S(=O)(=O)N(C)c2ccccc2C(=O)Nc2ccccc2Oc2ccccc2)cc1,1.64%
3,COc1ccc(NC(=O)[C@H](CC(C)C)Nc2cc(C)nc(NCc3cccc(C)c3)n2)cc1,9.52%
4,O=C(Nc1ccc(Cl)cc1)Nc1cccc(-c2ccc(-c3nc4cc(F)ccc4[nH]3)cc2)c1,3.96%
5,CCOC(=O)C(=O)N1c2ccc(OCC)cc2-c2c(ssc2=S)C1(C)C,4.44%
6,CCOC(=O)c1ccc(NC(=O)Nc2ccc(-c3ccc(-c4nc5cccc(C)c5[nH]4)s3)cc2)cc1,2.02%
7,CCCCCCn1c2c(c(=N)c3c1CCC3)CCCC2,6.72%
8,O=C(NCCCc1ccccc1)c1csc(C2CCCN(C(=O)c3ccc(O)c(-c4cccc5ccccc45)c3)C2)n1 (stereo unspecified),2.24%
9,COc1ccc2nccc([C@@H](O)CN3CCC(NC(=O)C(c4cc5ccccc5s4)N4CCN(c5ccccc5OC)CC4)CC3)c2c1 (stereo partly specified),2.08%
10,CC(=O)Nc1cccc(C(=O)Nc2ccc(-c3ccc(-c4nc5cccc(C)c5[nH]4)s3)cc2)c1,7.34%
11,CCN(CC)CCNc1nccc(N(C)c2ccc(NC(=O)Nc3cc(C(F)(F)F)ccc3F)cc2)n1,9.56%
12,CN(C)CCOc1cc(NC(=O)Nc2ccc(-c3ccccc3)cc2)ccc1I,7.58%
13,COc1ccc2nccc([C@@H](O)CN3CCC(NC(=O)C(c4cc5ccccc5o4)N4CCN(c5ccccc5)CC4)CC3)c2c1 (stereo partly specified),3.47%
14,CCOc1cc(Cc2cnc(N)nc2N)cc(OCC)c1-n1cccc1,0.72%
15,COc1cc(/C=C/C(=O)NC2CCC(N3CCC(c4ccccc4C)CC3)CC2)cc(OC)c1 (stereo unspecified),10%
16,Cc1ccc2[nH]c(-c3cc(-c4ccc(CO)cc4)cnc3N)nc2c1,5.51%
17,CCCc1cc(OC)c(CC2c3cccc(O)c3CCN2C)cc1OC (stereo unspecified),3.82%
18,COc1ccc(CCNCCCCCNCCCc2ccc(Cl)cc2)cc1OC,2.8%
19,COc1cc(F)c2ncc(Cl)c([C@H](O)CN3CCC(NCc4ccc5c(n4)NC(=O)CO5)CC3)c2c1,1.77%

row,SMILES,IFI
1,CNCCNCc1cccc(-c2ccc(-c3nc4cc(C(F)(F)F)ccc4[nH]3)cc2)c1,7%
2,O=C(Nc1ccc(Cl)c(Cl)c1)C1CCC(=O)N1[C@@H](Cc1ccccc1)C(=O)NCCc1ccc(Cl)cc1 (stereo partly specified),1.47%
3,Cc1cccc2nc(-c3cccc(-c4ccc(NC(=O)c5ccc(=O)[nH]n5)cc4)c3)[nH]c12,1.8%
4,CC(Nc1nncc(-c2cccc(F)c2)n1)c1ccc(F)cc1 (stereo unspecified),4.76%
5,CCNc1cc(C(=O)N[C@@H](Cc2ccccc2)[C@H](O)CNC(C)(C)CCCC(C)C)cc(N2CCCCS2(=O)=O)c1,1.46%
6,CCn1c(-c2nonc2N)nc2c(-c3ccccc3)ncc(OCCCCNCCc3ncc[nH]3)c21,11.3%
7,CN1CCC[C@H]1COc1ccc(CN2CC[C@H](NC(=O)c3ccc(Cl)c(Cl)c3)C2)c2ccccc12,9.68%
8,NC1CCN(Cc2ccc(-c3ccc(-c4nc5ccccc5[nH]4)s3)cc2)C1 (stereo unspecified),4.23%
9,CN1CCCC(CN2CCN(Cc3ccc(-c4cccc(-c5nc6ccccc6[nH]5)c4)cc3)CC2)C1 (stereo unspecified),8.33%
10,N#Cc1cccc(C(=O)NC2CCN(CCCCCNC(=O)/C=C/c3ccc(Cl)c(Cl)c3)CC2)c1,3.94%
11,Cc1cccnc1CNc1nccc2c(C)c(C)[nH]c12,3.85%
12,CN1C(=O)C(=NN=C(S)N2CCOCC2)c2ccccc21,6.94%
13,Cc1ccc(NC(=O)c2ccc(CN3CCCN(Cc4cccc(O)c4)CC3)cc2)cc1,9.52%
14,Cc1ccc2[nH]c3c(NCCN(C)C)ncnc3c2c1,-0%
15,O=C(Nc1cccc(F)c1)N[C@H]1CCN(CCCCCNC(=O)C2CC2c2ccc(Cl)c(Cl)c2)C1 (stereo partly specified),19.4%
16,CN1CCN(CCCNc2ncc3c(-c4ccc(NC(=O)Nc5cc(C(F)(F)F)ccc5F)c(F)c4)nn(C)c3n2)CC1,9.35%
17,Cc1cc2nc(-c3ccc(/C=C/C(=O)NCCCc4ccccc4)cc3)[nH]c2cc1C,3.79%
18,CC(C)(C)OC(=O)NCc1ccc(Nc2nnc(-c3ccc(OCC(=O)NC[C@@H]4CC[C@H]5C[C@@H]4C5(C)C)c([N+](=O)[O-])c3)o2)cc1,2.99%
